# The other results are listed elsewhere or left out.
# B1: LSECtin (Homo sapiens), Q6UXB4 (protein)
# chain: MDTTRYSKWGGSSEEVPGGPWGRWVHWSRRPLFLALAVLVTTVLWAVILSILLSKASTERAALLDGHDLLRTNASKQTAALGALKEEVGDCHSCCSGTQAQLQTTRAELGEAQAKLMEQESALRELRERVTQGLAEAGRGREDVRTELFRALEAVRLQNNSCEPCPTSWLSFEGSCYFFSVPKTTWAAAQDHCADASAHLVIVGGLDEQGFLTRNTRGRGYWLGLRAVRHLGKVQGYQWVDGVSLSFSHWNQGEPNDAWGRENCVMMLHTGLWNDAPCDSEKDGWICEKRHNC
# Assays:
# Assay in all cases: glycan array binding signal (z-score within array); higher = stronger binding
# Details in all cases: glycan notation: IUPAC condensed, linker removed
# [1] = molecular target: Neu5Ac(a2-6)Gal(b1-4)GlcNAc(b1-6)[Gal(b1-3)]GalNAc
# Method in brief: (§1)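 Columns mapping to the same glycan were averaged after glycan names were converted to IUPAC-condensed notation. The data come from 3228 arrays in the Consortium for Functional Glycomics database, limited to those with an available protein sequence. Binding is reported as a within-array Z-score averaged across arrays of one protein sequence and across linkers.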
# [2] = molecular target: Neu5Ac(a2-6)Gal(b1-4)GlcNAc6S
# Method in brief: as §1
# Neu5Ac(a2-6)GalNAc = molecular target: Neu5Ac(a2-6)GalNAc
# Method in brief: as §1
# [3] = molecular target: Neu5Ac(a2-6)GalNAc(b1-4)GlcNAc
# Method in brief: as §1
# [4] = molecular target: Neu5Ac(a2-6)GalNAc(b1-4)GlcNAc6S
# Method in brief: as §1
# [5] = molecular target: Neu5Ac(a2-6)GlcNAc(b1-4)GlcNAc
# Method in brief: as §1
# [6] = molecular target: Neu5Ac(a2-6)GlcNAc(b1-4)GlcNAc(b1-4)GlcNAc
# Method in brief: as §1
# Neu5Ac(a2-8)Neu5Ac = molecular target: Neu5Ac(a2-8)Neu5Ac
# Method in brief: as §1
# [7] = molecular target: Neu5Ac(a2-8)Neu5Ac(a2-3)Gal(b1-3)GalNAc(b1-4)[Neu5Ac(a2-3)]Gal(b1-4)Glc
# Method in brief: as §1
# [8] = molecular target: Neu5Ac(a2-8)Neu5Ac(a2-3)Gal(b1-3)GalNAc(b1-4)[Neu5Ac(a2-8)Neu5Ac(a2-3)]Gal(b1-4)Glc
# Method in brief: as §1
# [9] = molecular target: Neu5Ac(a2-8)Neu5Ac(a2-3)Gal(b1-4)Glc
# Method in brief: as §1
# [10] = molecular target: Neu5Ac(a2-8)Neu5Ac(a2-3)Gal(b1-4)GlcNAc
# Method in brief: as §1
# [11] = molecular target: Neu5Ac(a2-8)Neu5Ac(a2-3)[Gal(b1-3)GalNAc(b1-4)]Gal(b1-4)Glc
# Method in brief: as §1
# [12] = molecular target: Neu5Ac(a2-8)Neu5Ac(a2-3)[GalNAc(b1-4)]Gal(b1-4)Glc
# Method in brief: as §1
# [13] = molecular target: Neu5Ac(a2-8)Neu5Ac(a2-8)Neu5Ac
# Method in brief: as §1
# [14] = molecular target: Neu5Ac(a2-8)Neu5Ac(a2-8)Neu5Ac(a2-3)Gal(b1-4)Glc
# Method in brief: as §1
# [15] = molecular target: Neu5Ac(a2-8)Neu5Ac(a2-8)Neu5Ac(a2-3)[Gal(b1-3)GalNAc(b1-4)]Gal(b1-4)Glc
# Method in brief: as §1
# [16] = molecular target: Neu5Ac(a2-8)Neu5Ac(a2-8)Neu5Ac(a2-3)[GalNAc(b1-4)]Gal(b1-4)Glc
# Method in brief: as §1
# [17] = molecular target: Neu5Ac(a2-8)Neu5Ac(a2-8)Neu5Ac(a2-8)Neu5Ac(a2-3)[GalNAc(b1-4)]Gal(b1-4)Glc
# Method in brief: as §1
# [18] = molecular target: Neu5Ac(a2-8)Neu5Gc(a2-3)Gal(b1-4)GlcNAc
# Method in brief: as §1
# [19] = molecular target: Neu5Ac(b2-6)Gal(b1-4)GlcNAc
# Method in brief: as §1
# Neu5Ac(b2-6)GalNAc = molecular target: Neu5Ac(b2-6)GalNAc
# Method in brief: as §1
# [20] = molecular target: Neu5Ac9Ac(a2-3)Gal(b1-3)GlcNAc
# Method in brief: as §1
# [21] = molecular target: Neu5Ac9Ac(a2-3)Gal(b1-4)GlcNAc
# Method in brief: as §1
# [22] = molecular target: Neu5Ac9Ac(a2-6)Gal(b1-4)GlcNAc
# Method in brief: as §1
# [23] = molecular target: Neu5Gc(a2-3)Gal(b1-3)GlcNAc
# Method in brief: as §1
# [24] = molecular target: Neu5Gc(a2-3)Gal(b1-3)[Fuc(a1-4)]GlcNAc
# Method in brief: as §1
# Neu5Gc(a2-3)Gal(b1-4)Glc = molecular target: Neu5Gc(a2-3)Gal(b1-4)Glc
# Method in brief: as §1
# [25] = molecular target: Neu5Gc(a2-3)Gal(b1-4)GlcNAc
# Method in brief: as §1
# [26] = molecular target: Neu5Gc(a2-3)Gal(b1-4)GlcNAc(b1-3)Gal(b1-4)GlcNAc(b1-2)Man(a1-3)[Neu5Gc(a2-3)Gal(b1-4)GlcNAc(b1-3)Gal(b1-4)GlcNAc(b1-2)Man(a1-6)]Man(b1-4)GlcNAc(b1-4)GlcNAc
# Method in brief: as §1
# [27] = molecular target: Neu5Gc(a2-3)Gal(b1-4)[Fuc(a1-3)]GlcNAc
# Method in brief: as §1
# [28] = molecular target: Neu5Gc(a2-6)Gal(b1-4)GlcNAc
# Method in brief: as §1
# Neu5Gc(a2-6)GalNAc = molecular target: Neu5Gc(a2-6)GalNAc
# Method in brief: as §1
# [29] = molecular target: Neu5Gc(a2-8)Neu5Ac(a2-3)Gal(b1-4)GlcNAc
# Method in brief: as §1
# [30] = molecular target: Neu5Gc(a2-8)Neu5Gc(a2-3)Gal(b1-4)GlcNAc
# Method in brief: as §1
# [31] = molecular target: Neu5Gc(a2-8)Neu5Gc(a2-3)Gal(b1-4)GlcNAc(b1-3)Gal(b1-4)GlcNAc
# Method in brief: as §1
# [32] = molecular target: Neu5Gc(a2-8)Neu5Gc(a2-6)Gal(b1-4)GlcNAc
# Method in brief: as §1
# [33] = molecular target: Neu5Gc(b2-6)Gal(b1-4)GlcNAc
# Method in brief: as §1
binder,measurement,setting,value
B1,glycan array binding signal (z-score),[1],-0.137
same,glycan array binding signal (z-score),[2],-0.058
same,glycan array binding signal (z-score),Neu5Ac(a2-6)GalNAc,-0.224
same,glycan array binding signal (z-score),[3],-0.182
same,glycan array binding signal (z-score),[4],-0.124
same,glycan array binding signal (z-score),[5],-0.231
same,glycan array binding signal (z-score),[6],-0.083
same,glycan array binding signal (z-score),Neu5Ac(a2-8)Neu5Ac,-0.115
same,glycan array binding signal (z-score),[7],-0.142
same,glycan array binding signal (z-score),[8],-0.044
same,glycan array binding signal (z-score),[9],-0.137
same,glycan array binding signal (z-score),[10],-0.141
same,glycan array binding signal (z-score),[11],-0.129
same,glycan array binding signal (z-score),[12],-0.145
same,glycan array binding signal (z-score),[13],-0.209
same,glycan array binding signal (z-score),[14],-0.117
same,glycan array binding signal (z-score),[15],-0.137
same,glycan array binding signal (z-score),[16],-0.21
same,glycan array binding signal (z-score),[17],-0.223
same,glycan array binding signal (z-score),[18],-0.135
same,glycan array binding signal (z-score),[19],-0.156
same,glycan array binding signal (z-score),Neu5Ac(b2-6)GalNAc,-0.124
same,glycan array binding signal (z-score),[20],-0.263
same,glycan array binding signal (z-score),[21],-0.077
same,glycan array binding signal (z-score),[22],-0.085
same,glycan array binding signal (z-score),[23],-0.2
same,glycan array binding signal (z-score),[24],-0.208
same,glycan array binding signal (z-score),Neu5Gc(a2-3)Gal(b1-4)Glc,0.095
same,glycan array binding signal (z-score),[25],-0.157
same,glycan array binding signal (z-score),[26],-0.108
same,glycan array binding signal (z-score),[27],-0.188
same,glycan array binding signal (z-score),[28],0.062
same,glycan array binding signal (z-score),Neu5Gc(a2-6)GalNAc,-0.16
same,glycan array binding signal (z-score),[29],-0.137
same,glycan array binding signal (z-score),[30],-0.147
same,glycan array binding signal (z-score),[31],-0.126
same,glycan array binding signal (z-score),[32],-0.138
same,glycan array binding signal (z-score),[33],-0.058
